Reference: publication PMC6919601, “Identification of Plasmodium dipeptidyl aminopeptidase allosteric inhibitors by high throughput screening” (PLoS ONE, 2019)
Values joined by “and” are separate entries in the source; they are usually repeats but may differ in a detail not shown here. Identical values can stand only once. The whole screen tested about 110,000 compounds, of which about 230 (0.21%) showed an effect of 50% or more. The list shows a part of the results.

The molecules below were run against DPAP1 (Plasmodium falciparum, UniProt Q8IIJ9) (assay: primary screen, percent inhibition; read by cleavage of a fluorogenic dipeptide substrate; higher = more effect of the substance).
Parameters: species or system P. falciparum D10 trophozoite lysates; single well
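Further: 30 min substrate incubation versus DMSO and 10 µM JCP410 controls.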

DPAP1, sequence (Q8IIJ9 whole entry, looked up): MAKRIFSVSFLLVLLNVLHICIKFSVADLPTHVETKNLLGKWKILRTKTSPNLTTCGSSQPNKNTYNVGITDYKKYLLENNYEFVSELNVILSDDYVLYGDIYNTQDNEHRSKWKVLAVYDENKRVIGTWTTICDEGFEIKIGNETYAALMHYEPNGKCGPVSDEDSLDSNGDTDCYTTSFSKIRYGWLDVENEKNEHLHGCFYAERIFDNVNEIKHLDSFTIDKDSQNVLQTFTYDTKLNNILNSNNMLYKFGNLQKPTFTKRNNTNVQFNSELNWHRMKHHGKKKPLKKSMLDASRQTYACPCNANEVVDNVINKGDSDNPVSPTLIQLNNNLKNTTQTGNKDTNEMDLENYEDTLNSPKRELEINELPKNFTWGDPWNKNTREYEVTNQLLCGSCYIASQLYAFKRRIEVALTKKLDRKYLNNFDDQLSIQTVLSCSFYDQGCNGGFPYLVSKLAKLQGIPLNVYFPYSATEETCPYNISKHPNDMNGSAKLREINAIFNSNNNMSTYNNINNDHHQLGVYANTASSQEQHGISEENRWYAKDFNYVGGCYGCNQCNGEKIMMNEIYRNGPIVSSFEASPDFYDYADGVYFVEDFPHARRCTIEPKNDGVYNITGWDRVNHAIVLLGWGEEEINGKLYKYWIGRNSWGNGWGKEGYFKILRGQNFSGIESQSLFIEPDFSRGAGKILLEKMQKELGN

In order of falling “% Inhibition @ 10 uM” value:
1. CCCCN(C)C(=O)CS(=O)(=O)Cc1nc(-c2cccc(OC)c2)oc1C  7.79%
2. CCOC(=O)c1c(NC(=O)c2ccc(S(=O)(=O)N3CCOCC3)cc2)sc2c1CCN(C)C2  7.26%
3. CCCN1CCC(NCC2CCCCC2)CC1  6.68%
4. COc1ccc(S(=O)(=O)Nc2ccc(Cl)c(Cl)c2)cc1  6.6%
5. Cc1cc(NC(=O)Cc2nn(C)c(=O)c3ccccc23)no1  6.47%
6. CCOC(=O)/C(C#N)=C\c1ccc(OC)c(O)c1  5.69%
7. N=C(NOC(=O)N1CCOCC1)c1ccccn1  5.17%
8. O=C(CSc1oc(-c2ccco2)nc1S(=O)(=O)c1ccccc1)c1ccccc1  4.77%
9. CCCCOc1ccc(-c2nnn(CC(=O)O)n2)cc1OCC  4.57%
10. O=S(=O)(c1ccccc1)N1CCCC(c2nc(O)c3nnn(Cc4ccccc4F)c3n2)C1 (centres unmarked)  4.3%
11. OCC1CCCCN1Cc1ccc(C(F)(F)F)cc1 (centres unmarked)  4.22%
12. COc1ccc(/C=C/c2nc(C#N)c(N3CCCC3)o2)cc1OC  4.13%
13. Cc1ccccc1NC(=O)CN1C(=O)S/C(=C/c2cccc(O)c2)C1=O  3.89%
14. COc1cccc(C2c3c(oc4ccc(C)cc4c3=O)C(=O)N2c2nc(C)c(C)s2)c1 (centres unmarked)  3.73%
15. Cc1ccc(SCCC(=O)NC(C)(C)C)cc1  3.68%
16. Cc1ccc2c(C)c(C(=O)N(Cc3ccccc3F)C3CCS(=O)(=O)C3)oc2c1C (centres unmarked)  3.62%
17. Cc1ccc2c(c1)c1nc3ccccc3nc1n2CCCN1C(=O)c2ccccc2C1=O  3.54%
18. CCCSCCCn1cnc2c3cc(OC)ccc3nc-2c1O  3.24%
19. C=CCNC(=O)C(=O)NCc1ccc(Cl)cc1Cl  3.15%
20. Cc1ccc(C)c(NC(=O)CN(c2cc(Cl)ccc2C)S(C)(=O)=O)c1  3.09%
21. Cn1c(=O)c(C(=O)c2ccccc2)c(O)c2ccccc21  2.64%
22. CCc1ccc(C2c3c(oc4cc(C)c(C)cc4c3=O)C(=O)N2CCCN2CCOCC2)cc1 (centres unmarked)  2.31%
23. COCCn1c(COc2ccc(C)cc2)nc2ccccc21  2.01%
24. COc1cc(NS(=O)(=O)c2ccc(NC(=O)c3ccc(Br)cc3)cc2)ncn1  1.96%
25. CC(=O)NS(=O)(=O)c1ccc(NC(=O)COc2ccccc2C)cc1  1.94%
26. O=C(CC(c1ccccc1)c1ccccc1)n1nnc2ccccc21  1.84%
27. CC1CCN(C(=O)Cn2cc(C(=O)c3ccccc3)c3ccccc32)CC1  1.62%
28. Cc1cc(OCC(=O)Nc2ccc(S(=O)(=O)N3CCCCCC3)cc2)ccc1Cl  1.08%
29. CCOC(=O)c1ccc(-c2ccc(/C=C(\C#N)c3[nH]nc(N)c3C#N)o2)cc1  0.997%
30. COc1cccc(-c2noc(N)c2C#N)c1  0.446%
31. O=C(NCc1ccccc1Cl)c1cc(S(=O)(=O)N2CCCCC2)c[nH]1  0.274%
32. N#C/C(C1=NCCC1)=C(/O)c1ccccc1  0.266%
33. CCn1c(C(=O)N2CCC(C(=O)NCCC3=CCCCC3)CC2)cc2sccc21  0.137%
34. Cc1nn(CC(=O)NCCCN2CC(C)CC(C)C2)c(=O)c2cccn12 (centres unmarked)  -0.0739%
35. Cc1ccc(C)c(S(=O)(=O)N2CCOCC2)c1  -0.268%
36. C/C(Cl)=C/Cn1c(SCC(C)O)nc2c1c(=O)[nH]c(=O)n2C (centres unmarked)  -1.08%
37. CN1C2=C(C(=O)CCC2)C(c2cc(Cl)ccc2OCC(=O)Nc2ccccc2)C2=C1CCCC2=O  -1.52%
38. CCOc1ccccc1N(CC(=O)NC1CCCCC1)S(=O)(=O)c1ccc(C)cc1  -1.61%
39. c1ccc(OCc2nc3ccccc3n2Cc2ccccn2)cc1  -1.72%
40. c1ccc2nc3c(nc2c1)[nH]c1ccccc13  -1.8%
41. CC(=O)CC(=O)N1CCN(c2ccc(F)cc2)CC1  -1.98%
42. CCOC(=O)c1cc(C(=O)OCC)c2cc(Br)ccc2n1  -2.6%
43. COC(=O)C1=CN(C2CC2)C=C(C(=O)OC)C1c1ccc(OC(F)(F)F)cc1  -2.65%
44. CCOc1cc(C/N=c2/c(-c3ccc(Cl)cc3)c(O)c2=O)cc(OCC)c1OCC  -2.74%
45. Cc1cccc2[nH]c(SCc3ccccc3)nc12  -2.88%
46. CCOC(=O)c1cnc2c(ccc3ccccc32)c1NC1CCCCC1  -3.06%
47. OC(CNC1CCC2C1CCC1C3CCCCC3CCC12)COc1ccccc1 (centres unmarked)  -3.44%
48. COC(=O)c1sccc1NC(=O)COCc1cc(-c2cccs2)on1  -3.53%
49. O=C(/C(=C/c1ccc(F)cc1)n1cncn1)c1ccc(Cl)cc1Cl  -3.71%
50. O=C(Nc1ncccc1Cl)C1COc2ccccc2O1 (centres unmarked)  -3.71%
51. CCOc1ccc(-c2cc(C(=O)NCCCOC(C)C)c3ccccc3n2)cc1  -4.06%
52. N#CC1=C(N)Oc2[nH]nc(-c3ccccc3)c2C1c1ccccc1Br (centres unmarked)  -4.33%
53. Cc1ccc(S(=O)(=O)NCC2CCC(C(=O)NCCC(C)C)CC2)cc1 (centres unmarked)  -4.53%
54. Oc1nsnc1N1CCCCC1  -4.75%
55. N#CC1=C(N)OC(c2ccccc2)=C(n2nnnc2N)C1c1cccnc1 (centres unmarked)  -5.36%
56. COc1cc(CN2CCCC(C)C2)cc(OC)c1 (centres unmarked)  -5.42%
57. Cc1cc2ccccc2cc1CN1CCOCC1  -5.59%
58. Cc1ccc(Cl)cc1-n1ncc2c(N3CCOCC3)ncnc21  -6.5%
59. Cn1c(=O)c2c(nc(CN3CCOCC3)n2CCc2ccccc2)n(C)c1=O  -7.05%
60. Cc1ccccc1CN(c1ccc(C(=O)Nc2ccc(F)cc2F)cc1)S(C)(=O)=O  -7.17%
61. CCC(Sc1nc(C)cc(C)n1)C(=O)Nc1cccc2ccccc12 (centres unmarked)  -7.57%
62. COc1cc(Br)c(CNC2CCCCC2C)cc1OC (centres unmarked)  -8.3%
63. COc1ccc2nc(NC(=O)Cn3ncc4c(=O)oc5ccccc5c43)sc2c1  -8.63%
64. COc1cc(C2C=C(c3cccc(Br)c3)Nc3ncnn32)cc(OC)c1OC (centres unmarked)  -9.28%

For `CC(NC(=O)/C=C/c1ccccc1Cl)c1ccccc1` (centres unmarked), the “% Inhibition @ 10 uM” value was -4.01% and 0.736%.
